In publication PMC4336329 (PLoS ONE, 2015):
The campaign covered roughly 310,000 compounds. About 2,200 (0.71%) showed an effect of 50% or more. Effects have a minus sign here. This is one part of the list.

Each molecule was assayed against human ether-à-go-go-related gene (hERG) potassium channel (human, UniProt Q12809) (assay: primary screen, population patch clamp on CHO cells stably expressing hERG).
Sequence of human ether-à-go-go-related gene (hERG) potassium channel (Q12809 whole entry, looked up): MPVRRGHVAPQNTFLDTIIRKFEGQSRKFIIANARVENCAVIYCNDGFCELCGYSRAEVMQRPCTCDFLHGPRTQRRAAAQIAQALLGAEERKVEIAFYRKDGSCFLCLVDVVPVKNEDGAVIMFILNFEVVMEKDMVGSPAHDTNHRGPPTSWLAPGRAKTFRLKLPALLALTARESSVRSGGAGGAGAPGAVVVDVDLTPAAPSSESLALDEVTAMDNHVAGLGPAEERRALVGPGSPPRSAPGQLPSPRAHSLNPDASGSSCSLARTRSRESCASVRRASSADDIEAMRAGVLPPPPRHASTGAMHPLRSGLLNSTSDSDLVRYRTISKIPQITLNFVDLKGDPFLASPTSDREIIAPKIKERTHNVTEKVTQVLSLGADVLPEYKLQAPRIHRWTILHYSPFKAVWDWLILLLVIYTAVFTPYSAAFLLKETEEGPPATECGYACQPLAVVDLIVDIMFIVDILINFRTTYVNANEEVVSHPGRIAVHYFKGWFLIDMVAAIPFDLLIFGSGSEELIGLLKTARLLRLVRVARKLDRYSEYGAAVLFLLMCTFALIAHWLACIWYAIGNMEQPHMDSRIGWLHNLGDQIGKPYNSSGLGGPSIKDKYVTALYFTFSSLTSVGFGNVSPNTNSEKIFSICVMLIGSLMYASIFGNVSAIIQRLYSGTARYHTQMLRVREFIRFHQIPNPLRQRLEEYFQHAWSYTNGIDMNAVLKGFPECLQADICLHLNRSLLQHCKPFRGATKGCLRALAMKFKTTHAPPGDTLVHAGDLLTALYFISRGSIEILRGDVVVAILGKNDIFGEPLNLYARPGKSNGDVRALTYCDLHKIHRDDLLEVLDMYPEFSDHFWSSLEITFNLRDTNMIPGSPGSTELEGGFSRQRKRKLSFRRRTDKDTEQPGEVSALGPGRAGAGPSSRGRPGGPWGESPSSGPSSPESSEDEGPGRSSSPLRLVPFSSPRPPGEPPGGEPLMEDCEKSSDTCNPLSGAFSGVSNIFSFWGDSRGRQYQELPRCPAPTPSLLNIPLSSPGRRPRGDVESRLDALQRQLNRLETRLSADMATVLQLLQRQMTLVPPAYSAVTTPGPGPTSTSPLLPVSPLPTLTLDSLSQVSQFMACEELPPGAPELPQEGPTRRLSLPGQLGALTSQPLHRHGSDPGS

Row | SMILES | hERG current change (%, negative = inhibition) at 1uM
1 | CCCn1c(=O)[nH]c(=O)c2c(C(=O)OCC)cc(-c3cccs3)nc21 | 9.08%
2 | Cn1c(=O)c2c(ncn2CC(=O)Nc2ccc(N3CCOCC3)cc2)n(C)c1=O | 11.9%
3 | Cc1ccc(N/C=C2\CCCCC2=O)c(C)c1 | 8.3%
4 | CC(=O)Nc1cccc(NC(=O)c2ccc(Br)cc2)c1 | 20.4%
5 | CN1C2=CC=CC=CC2=[N+](C)C12C=CC(=[N+]([O-])[O-])C=C2[N+](=O)[O-] (centres unmarked) | 11.6%
6 | Cc1nc(N/N=C/c2ccc(O)cc2O)cc(N2CCOCC2)n1 | 10.9%
7 | CCn1c(CCc2ccccc2)nc2ccccc21.Cl | 10.9%
8 | Cc1cccc(NC(=O)C2CCN(S(=O)(=O)c3c(C)[nH]c(=O)[nH]c3=O)CC2)c1 | 3.29%
9 | CCCNC(=S)N1CCC(NC(=O)Nc2ccc(C)cc2)CC1 | 13.4%
10 | CC(C)CC(OC(=O)c1ccc(Cl)nc1)C(=O)NC1CCCC1 (centres unmarked) | 13.8%
11 | CN(C(=O)c1ccc2c(c1)OCO2)C1CCCCC1 | 6.85%
12 | CCN(CC(=O)Nc1ccc(NC(C)=O)cc1)C(=O)c1cccc(-n2cccc2)c1 | 19.5%
13 | CCOC(=O)c1c(-c2ccc(F)cc2)csc1NC(=O)CN1C(=O)NC2(CCCCC2C)C1=O (centres unmarked) | 4.89%
14 | CSCCC(NC(=O)COc1ccccc1)C(=O)N1CCCC(C)C1 (centres unmarked) | 4.93%
15 | CCOc1ccc(CNC(=O)CCC(=O)N2Cc3ccccc3Oc3ncccc32)cc1 | -6.15%
16 | O=c1cc(O)c2ccccc2n1Cc1ccccc1F | 8.51%
17 | O=c1nccc(N/N=C/c2ccccc2O)[nH]1 | 12.2%
18 | O=C(C[n+]1cccc2ccccc21)c1ccc(Br)cc1.[Br-] | -5.64%
19 | COc1ccc2oc(=O)c(C(=O)Nc3cccc(C(C)=O)c3)cc2c1 | 16.8%

Row | SMILES | hERG current change (%, negative = inhibition) at 1uM
20 | COC(=O)c1ccc(NC(=O)CS(=O)(=O)c2ccccc2)cc1 | 11%
21 | Cc1c(Cl)cccc1N1C(=O)CC(NNC(=O)c2cccs2)C1=O (centres unmarked) | 12.1%
22 | Cc1c(Cl)cccc1NC(=O)COC(=O)Cn1cnc2c1c(=O)n(C)c(=O)n2C | 12.6%
23 | CCCc1nc2cc3c(cc2[nH]1)n(C)c(=O)n3C.Cl | 6.45%
24 | Cc1nnc(SCC(=O)NCc2ccccc2)s1 | 9.69%
25 | CN(CC(=O)O/N=C(\N)c1ccc([N+](=O)[O-])cc1)S(=O)(=O)c1ccccc1 | 1.05%
26 | O=c1[nH]c(C2CCCN(S(=O)(=O)c3ccc(F)cc3)C2)nc2c1nnn2Cc1ccc(F)cc1 (centres unmarked) | 6.87%
27 | OCCC1CN(CCCc2ccccc2)CCN1Cc1ccccc1 (centres unmarked) | -35.6%
28 | CC(=O)N1CCc2c(sc(NC(=O)Cc3ccc(C)cc3C)c2C#N)C1 | 3.21%
29 | O=C(COc1ccc2ccc(=O)oc2c1)NCC(O)c1ccccc1 (centres unmarked) | 12.9%
30 | CCOC(=O)c1sc2nc(C)nc(NCc3cccnc3)c2c1C | 10.8%
31 | O=C1CC(NCc2ccc3c(c2)OCO3)C(=O)N1Cc1ccc2c(c1)OCO2 (centres unmarked) | 5.43%
32 | O=P(OCC(F)(F)C(F)F)(N1CCCCC1)N1CCCCC1 | 7.71%
33 | COc1ccc(/C=C(\NC(=O)c2ccc(C)cc2)C(=O)NCCCN2CCOCC2)cc1OC | 14.1%
34 | COCCN(Cc1ccccc1)C(=O)Cc1ccc(S(=O)(=O)N2CCOCC2)s1 | -2.95%
35 | CCOc1ccc(NC(=O)CSC2=C(C#N)C(c3ccc4c(c3)OCO4)CC(=O)N2)cc1 (centres unmarked) | -0.396%
36 | COc1ccccc1CNc1cc(C)ccn1 | 13.5%
37 | c1ccc(-n2nc3ccccc3n2)cc1 | 10.8%
38 | C/C(=N\N1CCN(C)CC1)c1c(O)[nH]c(=O)[nH]c1=O | 8.28%

Row | SMILES | hERG current change (%, negative = inhibition) at 1uM
39 | CCOC(=O)COc1ccc(/C=C/[N+](=O)[O-])c(OCC(=O)OCC)c1 | 12.7%
40 | COc1cccc(CNc2ccc(S(=O)(=O)Nc3nccs3)cc2)c1O | 5.41%
41 | NC(N)=NS(=O)(=O)c1ccc(NC(=S)NC(=O)c2sc3ccccc3c2Cl)cc1 | 16.6%
42 | O=C1C2CCCN2C(c2cccc(Cl)c2)N1c1ccccn1 (centres unmarked) | 8.58%
43 | Cc1sc2nc(C3CC3)nc(SCC(=O)NCc3ccco3)c2c1C | 8.91%
44 | CO[C@@H]1[C@@H](OC(N)=O)[C@@H](O)C(Oc2ccc3c(O)c(NC(=O)c4ccc([O-])c(CC=C(C)C)c4)c(=O)oc3c2C)OC1(C)C.[Na+] (some centres unmarked) | 10.2%
45 | CCOc1ccc2nc(N3CCC(C(=O)NC4CCCCC4)CC3)sc2c1 | 17.7%
46 | O=C(Nc1cccc(S(=O)(=O)N2CCOCC2)c1)c1c2c(nc3ccccc13)CCC2 | 8.49%
47 | CN(C(=O)COC(=O)CCc1nc2ccccc2c(=O)[nH]1)C1CCS(=O)(=O)C1 (centres unmarked) | 9.85%
48 | C/C(=N\O)c1ncc(C(F)(F)F)cc1Cl | 10.8%
49 | COc1cc(NC(=O)c2sc3nc(C)nc(N4CCOCC4)c3c2C)cc(OC)c1OC | 30.1%
50 | CCCOC(=O)c1ccc(NC(=O)CN(C)Cc2cccs2)cc1 | 11.8%
51 | CS(=O)(=O)N1CCc2cc(C(=O)OCC(=O)c3ccccc3)ccc21 | 15.3%
52 | CS(=O)(=O)c1cccc(-c2nnc(NC(=O)CCS(=O)(=O)c3ccccc3)o2)c1 | 3.6%
53 | Clc1cccc(Cl)c1Cn1ccc(C2CC2)n1 | 5.67%
54 | COc1cccc(NC(=O)CSc2nc3ccccc3c(=O)n2CCCC(=O)NCCCN2CCOCC2)c1 | 2.09%
55 | COc1ccc(-c2nc3ccccc3n2CCC(C)C)cc1OC | -6.45%
56 | O=C(CSc1nc2[nH]c(=O)cc(O)c2s1)Nc1ccc(Br)cc1 | 12.8%
